# The other results are listed elsewhere or left out. Cut-off read from the data, not from the text of the source: active = 3.2 or more and inactive = the rest. Only a few entries rise above the background.
# Target: SHP2 C-SH2 domain E139D
# Assay: enrichment score (SH2-bound / input frequency) (ratio); bacterial display of known human phosphotyrosine sites (pTyr-Var adds point mutants) read by sequencing; higher = stronger binding; tyrosines were phosphorylated by kinases first
# Conditions: peptide library: pTyr-Var
# 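Note: displayed peptides selected on beads carrying the immobilized SH2 domain, with library peptides lacking any tyrosine serving as negative controls.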
row,Binder,enrichment score
1,IVAREYFSEAD [CAMK2A_Y106_YF],inactive: 0.721
2,IKAGAYDFPSP [CAMK2A_Y230],inactive: 0.701
3,IVAREYYSKAD [CAMK2B_Y107_E110K],inactive: 1.2
4,IVAREYFSKAD [CAMK2B_Y107_E110K_YF],inactive: 0.913
5,VVKLAYNENDN [CAMKK2_Y183],inactive: 0.925
6,EEAAGYAQESQ [CAMKV_Y491],inactive: 0.547
7,EEAAGCAQESQ [CAMKV_Y491_Y491C],inactive: 0.569
8,TSPKSYPSQKH [CAP2_Y316],inactive: 0.513
9,ASPKSYPSQKH [CAP2_Y316_T311A],inactive: 0.612
10,TSPKSCPSQKH [CAP2_Y316_Y316C],inactive: 0.713
11,LVRAFYCERRW [CARD11_Y970_R975W],inactive: 0.509
12,TSHKGYVAFLE [CARD9_Y76_G72S],inactive: 0.838
13,MPIPMYDGSQA [CARMIL1_Y637_A639G],inactive: 0.895
14,IMAYFYMCDRA [CASD1_Y382],inactive: 1.37
15,IMAFFYMCDSA [CASD1_Y382_R386S_YF],inactive: 2.96
16,KKKKQYKGKFL [CASK_Y708_D710G_YF],inactive: 0.212
17,QYKDKYLAKHN [CASK_Y712],inactive: 1.16
18,QYKGKYLAKHN [CASK_Y712_D710G],inactive: 1.18
19,EEKKKYYDAKI [CASP5_Y103_T106A],inactive: 0.707

# Target: SHP2 C-SH2 domain wild-type
# Assay: as above
# Conditions: peptide library: pTyr-Var
row,Binder,enrichment score
1,IVAREYFSEAD [CAMK2A_Y106_YF],inactive: 0.974
2,IKAGAYDFPSP [CAMK2A_Y230],inactive: 0.798
3,IVAREYYSKAD [CAMK2B_Y107_E110K],inactive: 0.987
4,IVAREYFSKAD [CAMK2B_Y107_E110K_YF],inactive: 0.738
5,VVKLAYNENDN [CAMKK2_Y183],inactive: 0.72
6,EEAAGYAQESQ [CAMKV_Y491],inactive: 0.531
7,EEAAGCAQESQ [CAMKV_Y491_Y491C],inactive: 0.451
8,TSPKSYPSQKH [CAP2_Y316],inactive: 0.366
9,ASPKSYPSQKH [CAP2_Y316_T311A],inactive: 0.578
10,TSPKSCPSQKH [CAP2_Y316_Y316C],inactive: 0.607
11,LVRAFYCERRW [CARD11_Y970_R975W],inactive: 0.332
12,TSHKGYVAFLE [CARD9_Y76_G72S],inactive: 1.14
13,MPIPMYDGSQA [CARMIL1_Y637_A639G],inactive: 0.708
14,IMAYFYMCDRA [CASD1_Y382],inactive: 1.64
15,IMAFFYMCDSA [CASD1_Y382_R386S_YF],inactive: 2.97
16,KKKKQYKGKFL [CASK_Y708_D710G_YF],inactive: 0.489
17,QYKDKYLAKHN [CASK_Y712],inactive: 0.848
18,QYKGKYLAKHN [CASK_Y712_D710G],inactive: 1.14
19,EEKKKYYDAKI [CASP5_Y103_T106A],inactive: 0.88

# Target: SHP2 N-SH2 domain L43F
# Assay: as above
# Conditions: peptide library: pTyr-Var
row,Binder,enrichment score
1,IVAREYFSEAD [CAMK2A_Y106_YF],inactive: 0.7
2,IKAGAYDFPSP [CAMK2A_Y230],inactive: 0.775
3,IVAREYYSKAD [CAMK2B_Y107_E110K],inactive: 1.27
4,IVAREYFSKAD [CAMK2B_Y107_E110K_YF],inactive: 0.839
5,VVKLAYNENDN [CAMKK2_Y183],inactive: 0.763
6,EEAAGYAQESQ [CAMKV_Y491],inactive: 0.531
7,EEAAGCAQESQ [CAMKV_Y491_Y491C],inactive: 0.425
8,TSPKSYPSQKH [CAP2_Y316],inactive: 0.393
9,ASPKSYPSQKH [CAP2_Y316_T311A],inactive: 0.601
10,TSPKSCPSQKH [CAP2_Y316_Y316C],inactive: 0.69
11,LVRAFYCERRW [CARD11_Y970_R975W],inactive: 0.399
12,TSHKGYVAFLE [CARD9_Y76_G72S],inactive: 0.915
13,MPIPMYDGSQA [CARMIL1_Y637_A639G],inactive: 0.792
14,IMAYFYMCDRA [CASD1_Y382],inactive: 1.47
15,IMAFFYMCDSA [CASD1_Y382_R386S_YF],inactive: 2.64
16,KKKKQYKGKFL [CASK_Y708_D710G_YF],inactive: 0.47
17,QYKDKYLAKHN [CASK_Y712],inactive: 0.833
18,QYKGKYLAKHN [CASK_Y712_D710G],inactive: 1.32
19,EEKKKYYDAKI [CASP5_Y103_T106A],inactive: 0.567

# Target: SHP2 N-SH2 domain T42A
# Assay: as above
# Conditions: peptide library: pTyr-Var
row,Binder,enrichment score
1,IVAREYFSEAD [CAMK2A_Y106_YF],inactive: 0.757
2,IKAGAYDFPSP [CAMK2A_Y230],inactive: 0.68
3,IVAREYYSKAD [CAMK2B_Y107_E110K],inactive: 0.689
4,IVAREYFSKAD [CAMK2B_Y107_E110K_YF],inactive: 0.817
5,VVKLAYNENDN [CAMKK2_Y183],inactive: 0.786
6,EEAAGYAQESQ [CAMKV_Y491],inactive: 0.437
7,EEAAGCAQESQ [CAMKV_Y491_Y491C],inactive: 0.436
8,TSPKSYPSQKH [CAP2_Y316],inactive: 0.352
9,ASPKSYPSQKH [CAP2_Y316_T311A],inactive: 0.579
10,TSPKSCPSQKH [CAP2_Y316_Y316C],inactive: 0.576
11,LVRAFYCERRW [CARD11_Y970_R975W],inactive: 0.358
12,TSHKGYVAFLE [CARD9_Y76_G72S],inactive: 0.762
13,MPIPMYDGSQA [CARMIL1_Y637_A639G],inactive: 0.739
14,IMAYFYMCDRA [CASD1_Y382],inactive: 1.31
15,IMAFFYMCDSA [CASD1_Y382_R386S_YF],inactive: 2.36
16,KKKKQYKGKFL [CASK_Y708_D710G_YF],inactive: 0.347
17,QYKDKYLAKHN [CASK_Y712],inactive: 0.645
18,QYKGKYLAKHN [CASK_Y712_D710G],inactive: 1.21
19,EEKKKYYDAKI [CASP5_Y103_T106A],inactive: 1.11

# Target: SHP2 N-SH2 domain T52S
# Assay: as above
# Conditions: peptide library: pTyr-Var
row,Binder,enrichment score
1,IVAREYFSEAD [CAMK2A_Y106_YF],inactive: 0.849
2,IKAGAYDFPSP [CAMK2A_Y230],inactive: 0.734
3,IVAREYYSKAD [CAMK2B_Y107_E110K],inactive: 1.08
4,IVAREYFSKAD [CAMK2B_Y107_E110K_YF],inactive: 1.05
5,VVKLAYNENDN [CAMKK2_Y183],inactive: 1.03
6,EEAAGYAQESQ [CAMKV_Y491],inactive: 0.563
7,EEAAGCAQESQ [CAMKV_Y491_Y491C],inactive: 0.56
8,TSPKSYPSQKH [CAP2_Y316],inactive: 0.501
9,ASPKSYPSQKH [CAP2_Y316_T311A],inactive: 0.503
10,TSPKSCPSQKH [CAP2_Y316_Y316C],inactive: 0.619
11,LVRAFYCERRW [CARD11_Y970_R975W],inactive: 0.448
12,TSHKGYVAFLE [CARD9_Y76_G72S],inactive: 1.13
13,MPIPMYDGSQA [CARMIL1_Y637_A639G],inactive: 0.761
14,IMAYFYMCDRA [CASD1_Y382],inactive: 1.4
15,IMAFFYMCDSA [CASD1_Y382_R386S_YF],inactive: 2.21
16,KKKKQYKGKFL [CASK_Y708_D710G_YF],inactive: 0.531
17,QYKDKYLAKHN [CASK_Y712],inactive: 1.08
18,QYKGKYLAKHN [CASK_Y712_D710G],inactive: 1.08
19,EEKKKYYDAKI [CASP5_Y103_T106A],inactive: 0.601

# Target: SHP2 N-SH2 domain wild-type
# Assay: as above
# Conditions: peptide library: pTyr-Var
row,Binder,enrichment score
1,IVAREYFSEAD [CAMK2A_Y106_YF],inactive: 0.828
2,IKAGAYDFPSP [CAMK2A_Y230],inactive: 0.829
3,IVAREYYSKAD [CAMK2B_Y107_E110K],inactive: 1.02
4,IVAREYFSKAD [CAMK2B_Y107_E110K_YF],inactive: 1.06
5,VVKLAYNENDN [CAMKK2_Y183],inactive: 1.09
6,EEAAGYAQESQ [CAMKV_Y491],inactive: 0.327
7,EEAAGCAQESQ [CAMKV_Y491_Y491C],inactive: 0.474
8,TSPKSYPSQKH [CAP2_Y316],inactive: 0.414
9,ASPKSYPSQKH [CAP2_Y316_T311A],inactive: 0.456
10,TSPKSCPSQKH [CAP2_Y316_Y316C],inactive: 0.678
11,LVRAFYCERRW [CARD11_Y970_R975W],inactive: 0.311
12,TSHKGYVAFLE [CARD9_Y76_G72S],inactive: 0.774
13,MPIPMYDGSQA [CARMIL1_Y637_A639G],inactive: 0.755
14,IMAYFYMCDRA [CASD1_Y382],inactive: 1.98
15,IMAFFYMCDSA [CASD1_Y382_R386S_YF],active: 3.32
16,KKKKQYKGKFL [CASK_Y708_D710G_YF],inactive: 0.566
17,QYKDKYLAKHN [CASK_Y712],inactive: 0.653
18,QYKGKYLAKHN [CASK_Y712_D710G],inactive: 1.18
19,EEKKKYYDAKI [CASP5_Y103_T106A],inactive: 0.927

# Reference: the supplement of paper PMC10369915
